# PubChem BioAssay AID488969 (Vanderbilt High Throughput Screening Facility, 2010)
# In all, about 110,000 compounds were measured (“z-score”: median about -0.1, highest 2% from about 2 on). Some of the results follow. Calls of active or inactive are those of the source.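 The calls were made as follows: active = z-score in the third read window above 3 or below -3; inactive = the rest.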
# Biological target: Metabotropic glutamate receptor 8 (Rattus norvegicus) (UniProt P70579)
# Assay: rat mGluR8 modulators via GIRK flux, primary screen, cell-based, thallium flux, HTS (AID 488969)
# Conditions: HEK293 rat mGluR8, GIRK (G protein-gated inwardly rectifying potassium channel) thallium flux, FluoZin2; at 10 µM; stronger effect = higher value; submaximal glutamate (EC20) added with thallium
# Chain of UniProt P70579 (P70579 whole entry, looked up): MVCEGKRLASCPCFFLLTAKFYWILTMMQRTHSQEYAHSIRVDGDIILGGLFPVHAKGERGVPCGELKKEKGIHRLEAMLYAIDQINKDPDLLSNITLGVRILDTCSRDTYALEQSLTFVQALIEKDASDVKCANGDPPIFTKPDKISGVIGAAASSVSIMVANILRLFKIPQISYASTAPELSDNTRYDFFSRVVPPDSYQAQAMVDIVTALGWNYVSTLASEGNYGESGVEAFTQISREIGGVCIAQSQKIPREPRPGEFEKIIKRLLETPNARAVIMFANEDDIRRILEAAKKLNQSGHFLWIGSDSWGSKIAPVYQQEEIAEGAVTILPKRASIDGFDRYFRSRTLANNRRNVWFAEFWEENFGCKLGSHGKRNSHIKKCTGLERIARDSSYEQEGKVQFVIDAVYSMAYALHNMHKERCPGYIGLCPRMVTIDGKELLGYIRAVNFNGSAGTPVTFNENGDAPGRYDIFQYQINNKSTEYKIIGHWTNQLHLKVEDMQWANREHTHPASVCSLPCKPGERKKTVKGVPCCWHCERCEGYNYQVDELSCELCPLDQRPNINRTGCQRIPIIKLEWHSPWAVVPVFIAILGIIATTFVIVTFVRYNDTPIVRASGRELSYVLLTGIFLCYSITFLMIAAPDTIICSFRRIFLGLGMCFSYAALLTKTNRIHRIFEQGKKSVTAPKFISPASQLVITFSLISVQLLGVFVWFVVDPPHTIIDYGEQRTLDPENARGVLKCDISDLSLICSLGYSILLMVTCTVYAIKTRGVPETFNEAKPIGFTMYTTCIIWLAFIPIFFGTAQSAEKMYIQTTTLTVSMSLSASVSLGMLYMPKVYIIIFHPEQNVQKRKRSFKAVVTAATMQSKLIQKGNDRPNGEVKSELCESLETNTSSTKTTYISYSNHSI
row,Structure (SMILES),z-score
1,CCCS(=O)(=O)C(=C(Nc1ccccc1)Nc1ccccc1)S(=O)(=O)CCC,0.19
2,COc1ccc(NC(=O)N2CCC(c3ccccc3)C2)c(OC)c1 (stereo not drawn),-0.436
3,COCCn1nnnc1SCC(=O)c1ccc(F)cc1,0.0292
4,COC(=O)c1ccccc1NC(=O)CN1CCN(C(=O)c2ccco2)CC1,0.296
5,CCCCn1c(-c2cccnc2)n[nH]c1=S,-0.106
6,N#Cc1nc(-c2ccco2)oc1N1CCC(Cc2ccccc2)CC1,0.453
7,COc1ccc(-n2cnnc2SCC(=O)N2CCN(S(=O)(=O)c3ccccc3)CC2)cc1,-0.105
8,CCC(C)NC(=O)c1cn(-c2cccc(C)n2)cn1 (stereo not drawn),0.0167
9,CCCCCCCCC[n+]1cccc2c3ccccc3ccc21,0.767
10,CC(C)NC(=O)c1cccc(C(F)(F)F)c1,-0.244
11,CCCOc1ccc(-c2nc(N)n[nH]2)cc1,-0.113
12,CSc1nc(-c2ccccc2)nn1C(=O)c1ccc(C)cc1,-0.0769
13,O=C(CSc1nnc(-c2ccccc2)o1)NCC1CCCCC1,0.283
14,Cc1ccc(-c2nnc(NCc3ccccc3)c3ccccc23)cc1,-0.103
15,O=C1S/C(=C/c2ccc(N3CCOCC3)o2)C(=O)N1Cc1c(F)cccc1Cl,0.332
16,Cc1cc(C)nc(N/N=C/c2ccccc2OCc2ccc(Br)cc2)n1,-0.137
17,O=C(COC(=O)c1cccnc1)c1ccc(Cl)cc1,0.137
18,Cn1c(=O)n(C)c2cc([N+](=O)[O-])c(N3CCN(S(=O)(=O)c4ccccc4)CC3)cc21,-0.392
19,O=C(c1ccc(C(=O)N2CCCc3ccccc32)s1)N1CCCc2ccccc21,0.715
20,CCCCOc1ccc(C2C3CN(C(=O)OCC)CC=C3C(C#N)=C(N)C2(C#N)C#N)cc1OC (stereo not drawn),-0.6
21,FCCCOc1ccc(-c2nccc(-c3ccc(Cl)cc3)n2)cc1,-0.0154
22,Cc1cccc(NC(=S)NCC(c2cccnc2)N(C)C)c1 (stereo not drawn),0.286
23,Cc1ccc(OCC(=O)N/N=C/C=C/c2ccco2)cc1C,-0.222
24,Cc1cc(NC(=O)CSc2ccc3nnc(-c4ccccn4)n3n2)no1,-0.369
25,CCOc1ccc(C(C)=O)cc1N1C(=O)C2C3C=CC(C3)C2C1=O (stereo not drawn),-0.533

row,Structure (SMILES),z-score
1,C=C(C)Cn1c(COc2ccccc2)nnc1SCC(=O)O,0.875
2,O=C(COc1ccccc1)NCCSc1ccccc1,0.0028
3,CCOC(=O)C1=C(C(C)=O)C(c2cccnc2)C(C#N)=C(N)O1 (stereo not drawn),0.0356
4,Cc1cc2nc(C)n(CCCNC(=O)Nc3cccc4ccccc34)c2cc1C,-0.0533
5,CCOc1cc(C(=O)NC(C)c2ccncc2)cc(OCC)c1OCC (stereo not drawn),0.0433
6,CCC1Sc2ccccc2N(CC(=O)NCc2ccccc2OC)C1=O (stereo not drawn),-0.286
7,c1ccc(CNc2nc3ccccc3n3cnnc23)nc1,0.803
8,Cc1cccc2sc(N(CCN(C)C)C(=O)c3cc(Cl)sc3Cl)nc12,-0.0963
9,Cc1ccc(OCCN2CCN(C)CC2)c([N+](=O)[O-])c1,-0.333
10,CC1(C)CCCC2=C1CC1C(=O)N(O)C(=O)C1C2 (stereo not drawn),-0.385
11,CC(C)OC(=O)C1=C2SCC(=O)N2C(N)=C(C#N)C1,-0.00665
12,CC(C)CC(=O)NCc1ccc(F)cc1,-0.107
13,COC(=O)c1sc(NC(=O)COc2cccc3ccccc23)nc1C,-0.0727
14,COc1ccc(CNC(=O)c2sc3nc4c(c(C(F)(F)F)c3c2N)CCC4)cc1OC,0.382
15,CCO/C=C/C(=O)N(C)CCC#N,-0.097
16,Cc1nc(CN2CCCC2=NC#N)n(-c2ccccc2)n1,1.36
17,c1ccc(N=P(N2CCOCC2)(N2CCOCC2)N2CCOCC2)cc1,0.159
18,COc1ccc(C2=CSC(/N=C/c3ccc(F)cc3)=NN2)cc1,0.278
19,O=C(CSc1ccc2c(c1)OCCO2)NCCc1ccc(Cl)cc1Cl,-0.245
20,O=C(NCc1cccs1)c1cccnc1C(=O)O,active: 5.74
21,Cc1ccc(Cn2ccc(-c3cnc(-c4ccccc4)s3)n2)cc1,-0.462
22,COC(=O)NCc1ccc(S(=O)(=O)N2CCOCC2)cc1,0.235
23,O=C(NC(=S)Nc1cc(Cl)ccc1N1CCOCC1)c1ccc(-c2cccc(Cl)c2)o1,-0.0121
24,CCc1nc(C)cn1S(=O)(=O)c1cc(C)c(OC)c(C)c1C,0.091
25,Cc1cc(NC(=O)CCC(=O)N(c2ccccc2)C2(C(=O)NC3CCCCC3)CCCC2)no1,-1.15

row,Structure (SMILES),z-score
1,CCOC(=O)c1sc(NC(=O)COc2ncnc3ccccc23)c(C(=O)OCC)c1C,-0.152
2,COc1ccc(NS(=O)(=O)c2ccc(NS(=O)(=O)c3ccc(SC)cc3)cc2)c(OC)c1,-0.182
3,CCN(CC)CCNS(=O)(=O)c1ccc(OC)c(Br)c1,-0.27
4,COc1cc(OC)cc(C(=O)N[C@H](C(=O)NC23CC4CC(CC(C4)C2)C3)C(C)C)c1,-0.138
5,COc1cc(Cl)c(C)cc1NC(=O)COC(=O)c1cc(SC)ccc1Cl,-0.239
6,COc1cccc(NC(=O)CSC2=C(C#N)C(c3ccco3)C3=C(CCCC3=O)N2)c1 (stereo not drawn),-2.29
7,CC(C)C(=O)Nc1ccc2c3c(cccc13)CC2,-0.101
8,CCCCNc1oc(-c2cccs2)nc1S(=O)(=O)c1ccccc1,1.05
9,Cc1ccc(CNC(=O)COC(=O)c2cc3c(s2)CCC(C)C3)cc1 (stereo not drawn),0.0313
10,Cc1ccc(NC(=O)N(Cc2cc3cc(C)cc(C)c3[nH]c2=O)CC2COCCO2)cc1 (stereo not drawn),-0.489
11,Cc1ccc(CCC2C3=C(CCCC3=O)OC3=C2C(=O)CCC3)cc1,-0.591
12,O=C(COC(=O)c1ccc2c(c1)C(=O)N(CCc1ccccc1)C2=O)Nc1ccc(OC(F)F)cc1,-0.206
13,COCCNC(=O)c1nc2c(nnn2Cc2cc(C)ccc2C)c(=O)[nH]1,-0.274
14,CC(=O)c1cc(F)c(N2CCCC2)cc1C,1.93
15,CCOc1ccc(NC(=O)CN(Cc2ccccc2)S(C)(=O)=O)cc1,-0.0617
16,O=C(O)c1ccc(N2C(=O)c3cccc(Oc4ccc(Cl)cc4)c3C2=O)cc1,0.79
17,O=C1COc2ccc(C(=O)c3ccccc3)cc2CN1,-0.0166
18,COc1ccc(N/C(C)=C/C(=O)c2ccccc2)cc1,-0.252
19,CCc1nnc(NC(=O)CSc2nnnn2C)s1,1.15
20,c1csc(Cn2c(-c3cccs3)nc3ccccc32)c1,-1.65
21,Cc1ccc(CCN2CC(C(=O)NC3CCCC3)CC2=O)cc1 (stereo not drawn),0.626
22,O=[N+]([O-])c1cccc(C(=Nc2ccccc2)NO)c1,-0.0036
23,O=C(NCc1ccccc1)C1CCN(S(=O)(=O)c2cccc3cccnc23)CC1,-0.478
